Source: PubChem BioAssay AID686971 (National Center for Advancing Translational Sciences (NCATS), 2013)
Screen size: about 360,000 compounds; about 7,500 (2.1%) were called active. The shares of active, inactive and inconclusive entries below differ from those in the screen. The call rests on the fitted dose curve; in most records, active means well fitted cell-killing curve with a large enough effect; inconclusive means small, poorly fitted or top-dose-only effect, or effect the other way, or another doubt; inactive means no such curve, though single readings can be large or run the other way. Potencies of inconclusive entries are left out as doubtful fits.

assay: qHTS for induction of synthetic lethality in tumor cells producing 2HG: qHTS for the HT-1080-IDH1KD cell line; settings: HT-1080 IDH1 knockdown viability, ATP luminescence, 48 h; activity, negative = toxicity: at 46.1 µM (top of the series) unless noted;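 on activity, negative = toxicity: 0% = DMSO wells and -100% = cell-free medium wells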
Method in brief: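 Using the IDH1-knockdown HT-1080 line run in the same batch and compound series as the NT line, viability after 48 h at 37 °C was determined by CellTiter-Glo luminescence and expressed as % activity.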
Potency means the concentration at half of the fitted maximal effect; tags describe the fitted curve by direction and shape.

SMILES	Potency	activity, negative = toxicity
COc1ccc(C2=Nc3ccccc3N(C(=O)c3ccc4ncccc4c3)C2C(=O)NC2CCCC2)cc1 (stereo not drawn)	inconclusive [cytotoxic, single point]	
Cc1sc2nc(C(C)Nc3ccccc3N3CCOCC3)[nH]c(=O)c2c1C (stereo not drawn)	inactive	
CC1(C)Cc2c(c(N3CCOCC3)nc3sc4c(NN)ncnc4c23)CS1	inconclusive [cytotoxic, partial curve]	
CNC(=S)N/N=C(\C)c1ccc(C(C)(C)C)cc1	inactive	
C/C=C(/C)C(=O)OC1CC(C)(C)C[C@H]2C3=CC[C@@H]4[C@@]5(C)CCC(O[C@@H]6O[C@@H](C(=O)O)[C@@H](O)C(O[C@@H]7OC[C@H](O)[C@@H](O)[C@@H]7O[C@@H]7OC(CO)C(O)[C@@H](O)[C@@H]7O)C6O[C@@H]6OC(CO)C(O)C(O)C6O)[C@@](C)(CO)[C@@H]5CC[C@]4(C)[C@]3(C)CC(O)[C@@]12CO (stereo partly drawn)	inconclusive [cytotoxic, single point]	
CCN1C(=O)C(O)(C2COC(C)(C)CC2=O)c2cc(Br)ccc21 (stereo not drawn)	inconclusive [cytotoxic, single point]	
CCn1nc(C(=O)NNC(=O)c2ccc(OC(F)F)cc2)c2ccccc2c1=O	inactive	
COc1ccc(-c2coc3cc(OC(C)=O)ccc3c2=S)cc1	inconclusive [cytotoxic, single point]	
CCCCC(=O)NC(=S)Nc1cccc(NC(=O)c2ccccc2)c1		inconclusive: -36.9% [cytotoxic]
COc1cc2c(ccc3cc(OC)c(OC)c(O)c32)cc1O	inconclusive [cytotoxic, single point]	
O=C(NCCN1C(=O)S/C(=C\c2cccc(Cl)c2Cl)C1=O)C1=COCCO1	inconclusive [cytotoxic, single point]	
NCCCCCCNS(=O)(=O)c1cccc2c(Cl)cccc12	inconclusive [cytotoxic, single point]	
NS(=O)(=O)c1ccc(CCNC(=O)CCc2nc3ccccc3s2)cc1	inactive	
Cc1ccc(OCC(=O)Oc2cccc(C)c2)cc1	inactive	
NC(=O)NC(Cc1ccccc1)C(=O)NCC1(N2CCCCC2)CCCCC1 (stereo not drawn)	inactive	
COc1cc(C2Oc3cc(C4Oc5cc(O)cc(O)c5C(=O)C4O)ccc3OC2CO)ccc1O (stereo not drawn)	inconclusive [cytotoxic, single point]	
COc1ccccc1Cn1[nH]nnc1=S	inactive	
CC(C)(C)OC(=O)N/N=C/c1cc(N=Nc2ccccc2)ccc1O	inconclusive [cytotoxic, single point]	
